The full ranking holds about 110,000 compounds; the median of “z-score” is about -0.1, and the highest 2% start at about 2. The list shows a part of the results.

The values that follow come from PubChem BioAssay AID488969 (Vanderbilt High Throughput Screening Facility, 2010).

The assay addresses Metabotropic glutamate receptor 8 (Rattus norvegicus) (UniProt P70579). Put plainly: rat mGluR8 modulators via GIRK flux, primary screen, cell-based, thallium flux, HTS (AID 488969). As to conditions: HEK293 rat mGluR8, GIRK (G protein-gated inwardly rectifying potassium channel) thallium flux, FluoZin2; at 10 µM; stronger effect = higher value; submaximal glutamate (EC20) added with thallium.
UniProt P70579, sequence (P70579 whole entry, looked up): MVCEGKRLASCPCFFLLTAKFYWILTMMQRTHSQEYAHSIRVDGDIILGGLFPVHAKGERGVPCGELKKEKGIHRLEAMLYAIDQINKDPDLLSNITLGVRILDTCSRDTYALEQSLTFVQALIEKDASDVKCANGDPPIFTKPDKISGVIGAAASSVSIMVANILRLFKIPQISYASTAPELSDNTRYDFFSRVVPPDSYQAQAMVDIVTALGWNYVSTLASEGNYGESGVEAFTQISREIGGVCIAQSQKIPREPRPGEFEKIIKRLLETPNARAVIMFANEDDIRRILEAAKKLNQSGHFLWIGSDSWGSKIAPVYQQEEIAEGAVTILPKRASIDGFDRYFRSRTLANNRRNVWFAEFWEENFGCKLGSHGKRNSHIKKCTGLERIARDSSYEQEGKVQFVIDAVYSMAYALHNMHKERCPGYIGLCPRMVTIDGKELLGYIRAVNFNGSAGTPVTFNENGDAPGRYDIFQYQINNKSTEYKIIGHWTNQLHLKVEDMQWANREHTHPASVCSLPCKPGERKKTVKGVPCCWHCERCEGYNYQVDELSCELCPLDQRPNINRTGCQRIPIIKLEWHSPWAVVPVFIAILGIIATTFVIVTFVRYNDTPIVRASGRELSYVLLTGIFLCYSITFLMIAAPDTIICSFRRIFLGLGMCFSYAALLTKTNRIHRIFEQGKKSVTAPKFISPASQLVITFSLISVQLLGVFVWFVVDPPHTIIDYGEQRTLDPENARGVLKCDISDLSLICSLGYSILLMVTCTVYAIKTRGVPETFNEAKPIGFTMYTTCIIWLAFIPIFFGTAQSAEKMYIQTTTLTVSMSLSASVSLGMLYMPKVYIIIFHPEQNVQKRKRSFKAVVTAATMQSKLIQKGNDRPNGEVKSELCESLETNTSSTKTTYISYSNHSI
Consider `CCOC(=O)C1C(=O)NCC1c1ccccc1` (configuration not stated), for which the z-score is -0.0823.

The compound `CC(=O)N(c1c(C)n(C)n(-c2ccccc2)c1=O)C1(C(=O)NC2CCCCC2)CCCCC1` returned a z-score of 0.00808.

As to `O=C(CCSc1nc(-c2ccco2)cc(C(F)(F)F)n1)NCC1CCCO1` (configuration not stated), the z-score turned out to be 0.272.

Regarding `Cc1cc(NC(=O)CSc2nc3c(sc4ccccc43)c(=O)n2CCCN2CCOCC2)n[nH]1`, the z-score is -0.235.

Take `CCOC(=O)c1cc(-c2ccccc2)n(CCC(=O)N2CCN(c3ccccn3)CC2)c1C`: the z-score is -0.389.

`CCc1c(C(=O)NCc2ccccc2Cl)[nH]c(C)c1C(C)=O`: the z-score was -0.281.

For `O=C(CSc1nnc(CN2CCOCC2)n1-c1ccc(Cl)cc1)Nc1ccc2c(c1)OCO2`, the z-score is -0.298.

As to `Cc1nn(CCc2n[nH]c(=S)n2-c2cccc(Cl)c2)c(C)c1[N+](=O)[O-]`, the z-score is -0.293.

On to `CC(C)NC(=O)CSc1nnc2sc3ccccc3n12`, for which the z-score was 0.284.

`O=C(NC1CCCCC1)c1cccs1` displayed a z-score of 0.0843.

Turning to `CCOC(=O)CSCC(=O)Nc1c(C(=O)C2CC2)oc2ccccc12`, the z-score is -0.266.

`Cc1cc(C)n2nc(S(=O)(=O)N(C)c3ccccc3)nc2n1` returned a z-score of 0.215.

As to `Cc1cc(NC(=O)CCC(=O)N(Cc2ccco2)C(C(=O)NC2CCCC2)c2ccccc2C)no1` (configuration not stated), the z-score was -0.43.

As for `O=C(Nc1nnc(C2CCCO2)s1)c1ccc(Br)cc1` (configuration not stated), the z-score stood at 0.12.

`Cc1ccc(-c2cc(C(F)(F)F)c(C#N)c(SCCC#N)n2)o1` showed a z-score of 0.109.

Take `CCN1CCCC1CN(Cc1cc2ccc(C)cc2[nH]c1=O)C(=S)Nc1cccc(OC)c1` (configuration not stated): the z-score was determined as 0.197.

In the case of `CCO/N=C(\C)c1c(O)c(CC)c(-c2ccccc2)n(-c2ccccc2)c1=O`, the z-score is -0.255.

`CCOC(=O)CNC(=O)CCNS(=O)(=O)c1ccc2c(c1)c(=O)n(C)c(=O)n2C`: the z-score is 0.282.

As for `CCOC(=O)C1=C(C)OC(N)=C(C#N)C1c1cc(F)ccc1F` (configuration not stated), the z-score is -2.09.

`CCOC(=O)N(NC(=O)C(O)(c1ccccc1)c1ccccc1)c1ccccc1`: the z-score is -0.387.

With `N#C/C(=C(/O)CN1CCN(c2ccccc2F)CC1)c1nc(-c2ccccc2)cs1`, the z-score is -0.12.

As to `CCOCC(=O)Nc1nnc(C2CCCCC2)s1`, the z-score is 0.0573.

On to `CN(C)C(=O)c1c(NC(=O)c2ccco2)sc2c1CCCCC2`, for which the z-score was found to be 0.93.

As for `CCOC(=O)c1[nH]c2cc(OC)c(OC)cc2c1N`, the z-score was -0.0417.

The compound `CC(=O)c1c(N2CCN(Cc3ccc4c(c3)OCO4)CC2)nc(=S)n(-c2ccccc2)c1C` returned a z-score of 0.042.

Compound `CCOc1ccccc1Oc1coc2cc(OC(=O)c3ccco3)ccc2c1=O` showed a z-score of 0.327.

`O=S(=O)(N/N=C1/CC(c2ccccc2)Oc2ccccc21)c1ccc(Br)cc1` (configuration not stated): the z-score was -0.0137.

As for `COc1ccc(/C=C/C(=O)C(C(N)=O)=C2SCCS2)cc1`, the z-score was -0.134.

Turning to `COc1ccc(CNC(=O)C(c2cccs2)N(Cc2ccco2)C(=O)Cc2cccs2)cc1` (configuration not stated), the z-score is -0.565.

Consider `CCN(c1ccccc1)S(=O)(=O)c1ccc(Cl)c(NC(=O)CSc2nncn2C)c1`, for which the z-score was -0.151.

`COC(=O)c1cccc(NC(=O)CSc2nc(C)cc(=O)[nH]2)c1`: the z-score is -0.438.

Take `O=C(c1ccccc1F)N1CCN(Cc2ccccc2F)CC1`: the z-score is -0.179.

`O=c1c2ccccc2nnn1Cc1nnc(-c2ccccc2Br)o1` came in with a z-score of 0.68.

Take `CCCC(=O)Nc1ccc(Sc2ccc([N+](=O)[O-])cc2)cc1`: the z-score turned out to be 0.077.

For `C=CCn1c(=NC(=O)c2ccco2)sc2cc(C(=O)OC)ccc21`, the z-score was determined as 0.103.

Take `CCOC(=O)c1cc2c(ccn2C)n1CC(=O)N(Cc1ccccc1)c1ccccc1`: the z-score came out at 1.36.

On to `O=C(O)c1cccc(N/N=C/c2cc(Br)cc(Br)c2O)c1`, for which the z-score is -0.753.

With `Cc1cccnc1NC(=O)Nc1cccs1`, the z-score was -0.232.

In the case of `O=C1Nc2c(c(=O)[nH]c(=O)n2-c2ccccc2)C(C(F)(F)F)(C(F)(F)F)N1`, the z-score was -0.42.

On to `COc1ccc(-c2cc(C(F)(F)F)n3nc(C(=O)N4CCCCC4)cc3n2)cc1OC`, for which the z-score was -0.217.

For the compound `CCOC(=O)N1CCN(CC(O)COCc2ccc(Cl)cc2)CC1` (configuration not stated), the z-score was -0.1.

With `Cc1ccc(C(=O)CSc2nnc(CNc3ccc(C)cc3C)o2)cc1`, the z-score worked out at 0.0375.

On to `O=C(CN1CCOCC1)Nc1ccccc1NC(=O)C1CCN(c2ncccn2)CC1`, for which the z-score is -0.305.

On to `CC(C)CC(c1nnnn1Cc1ccco1)N1CCN(C2CCCC2)CC1` (configuration not stated), for which the z-score was -0.0906.

For `O=C(NCc1ccco1)c1ccc(Cn2c(=O)c3sccc3n(Cc3cccc(F)c3)c2=O)cc1`, the z-score is -0.444.

For `Cc1c(Cl)c(C(=O)NC2C3CC4CC(C3)CC2C4)nn1C` (configuration not stated), the z-score worked out at 0.0524.

Consider `CCOc1ccc(-c2csc(Cn3c(CN4CCN(C)CC4)nc4ccccc4c3=O)n2)cc1`, for which the z-score is -0.838.

As to `O=C(c1cccnc1)N1CCN(Cc2ccccc2Br)CC1`, the z-score amounted to 0.625.

For the compound `Cn1c(C(=O)NC2CCCCCC2)cc2c(=O)n(C)c3ccccc3c21`, the z-score is -1.23.

Compound `CCOC(=O)C(C)Oc1nc(Oc2ccccc2)nc(N(C)C)n1` (configuration not stated) displayed a z-score of 0.243.

As for `Cc1ccc(CNS(=O)(=O)N(C)C)cc1`, the z-score was -0.481.

For `O=C(NC(=S)NCC1CCCO1)c1ccc([N+](=O)[O-])cc1` (configuration not stated), the z-score was -0.067.

On to `Cc1nc(NS(=O)(=O)c2ccccc2)sc1NC(=O)OCCN(C)C`, for which the z-score amounted to 0.0129.

Regarding `CCOC(=O)N1CCC(Nc2c(NCCCN(CC)Cc3ccccc3)c(=O)c2=O)CC1`, the z-score is -1.26.

Consider `Cc1ccccc1Cn1cc(NC(=O)CSc2nc3c(c(C(F)(F)F)n2)CCc2ccccc2-3)cn1`, for which the z-score is -0.789.

The compound `Cc1oc(-c2ccccc2Cl)nc1Cn1cccc1C1=NC(c2ccccc2)CO1` (configuration not stated) displayed a z-score of 0.899.

With `Cc1ccc(S(=O)(=O)N2CCN(Cc3nc4ccccc4[nH]3)CC2)cc1C`, the z-score is -0.049.

In the case of `CC1(C)OC(=O)C(=CNc2ncccn2)C(=O)O1`, the z-score was -0.0143.

Take `Cc1cccc(C(=O)n2c(=S)nc3ccccn32)c1`: the z-score was -0.0542.

As for `Cc1cccc(-n2ncc3c(NCCCn4ccnc4)ncnc32)c1`, the z-score is -0.339.

In turn, `Cc1ccc(NC(=O)CSc2ccc3nnc(CCNC(=O)c4ccccc4)n3n2)c(C)c1` came in with a z-score of 0.618.

`COc1ccccc1NC(CC(=O)c1ccccc1)C(=O)OCC(=O)c1ccc(C)c(C)c1` (configuration not stated) came in with a z-score of 0.228.

For `N#CC(c1ccccc1)N(CCCCl)C(=O)c1ccccc1` (configuration not stated), the z-score was -0.217.

On to `O=C(Nc1ccc(N2CCN(C(=O)c3ccccc3)CC2)c(Cl)c1)c1ccco1`, for which the z-score is -0.594.

As to `O=C(O)CCS(=O)(=O)Cc1ccccc1Cl`, the z-score is -0.00968.

As to `CCOc1ccc(C(C(=O)NC2CCCCC2)N(C(=O)c2ccco2)c2ccc(-n3cnnn3)c(C)c2)cc1` (configuration not stated), the z-score came to 0.32.

For the compound `Nc1nc2ccccc2n1/N=C/c1ccc(-c2ccccc2)o1`, the z-score is -0.307.

Turning to `O=C(CN(Cc1ccco1)S(=O)(=O)c1ccccc1)N/N=C/c1cccc(O)c1`, the z-score was -0.233.

For `O=C(CCNS(=O)(=O)c1ccc2c(c1)CCC(=O)N2)NCc1ccc2c(c1)OCO2`, the z-score was found to be 0.501.

As for `C=CCOc1c2ccc(C(=O)NCc3ccc(C)cc3)cc2nn1C`, the z-score is -0.111.

For the compound `COc1ccc(Nc2nc(N)nc(CSC(=S)N3CCN(c4ccccc4)CC3)n2)cc1`, the z-score is -0.0024.

Take `N/C(=N\c1nc(CSc2ccc(Cl)cc2)cc(=O)[nH]1)Nc1cccc2ccccc12`: the z-score was -0.0689.

Turning to `Cc1nc2nc[nH]n2c(=O)c1NC(=O)CC12CC3CC(CC(C3)C1)C2`, the z-score was -0.23.

Take `COC(=O)c1ccc(Cn2nc(C)c(Cl)c2C)o1`: the z-score is 0.241.

As to `COc1ccc(OCC(=O)NNC(=O)Cc2coc3cc(OC)ccc23)cc1`, the z-score was found to be 0.0448.

With `COc1ccc2c(c1)CC/C(=C\c1ccc(OC)c(Cn3nc(C)cc3C)c1)C2=O`, the z-score was found to be 0.459.

With `CCOC(=O)c1sc(NC(=O)CSc2nc(-c3ccco3)cc(C(F)(F)F)n2)c(C(=O)OC)c1C`, the z-score was -0.0236.

Turning to `Cc1nn(-c2ccc(F)cc2)c(Cl)c1/C=C(\CCC(=O)O)c1nc2ccccc2s1`, the z-score was -0.979.

In the case of `COc1cc(C2c3c(oc4ccccc4c3=O)C(=O)N2Cc2ccco2)ccc1O` (configuration not stated), the z-score was -0.106.

Take `CN(C)c1ccc(/C(=N\O)c2ccccc2)cc1`: the z-score was 0.0213.

For the compound `CCOC(=O)C1C2C=CC3(CN(Cc4ccco4)C(=O)C13)O2` (configuration not stated), the z-score was -0.327.

On to `COc1cccc(NC(=O)CSc2nnc(Cn3nnc4ccccc43)n2C)c1`, for which the z-score was 0.0801.

Consider `CCOC(=O)c1c(-c2ccc(C)c(C)c2)csc1NC(=O)C1CC=CCC1C(=O)O` (configuration not stated), for which the z-score is -0.108.

With `COc1cc(CCNC(=O)c2cnn3ccccc23)cc(OC)c1OC`, the z-score is -0.515.

On to `CCOC(=O)C1CCN(c2c(-c3ccccc3)c3cc(Cl)ccc3[nH]c2=O)CC1`, for which the z-score is -0.019.

As to `O=C(Cn1c(C(F)(F)F)nc2ccccc21)Oc1cccc(C(F)(F)F)c1`, the z-score is -0.288.

Consider `CN(C)S(=O)(=O)c1cc(NC(=O)COC(=O)C2CSC3(C)CCC(=O)N23)ccc1Cl` (configuration not stated), for which the z-score came out at 0.312.

For `Cc1ccc(Sc2cc(C(F)(F)F)nc(N(C)C)n2)cc1`, the z-score was -0.334.

Consider `O=C(CCN1CCC(c2ccccc2)C1)c1cccs1` (configuration not stated), for which the z-score is -0.0676.

As for `CCOC(=O)C1=C(N)OC2=C(C(=O)CCC2)C1c1ccccc1OCC` (configuration not stated), the z-score is -0.846.

On to `O=C(CCCOc1ccccc1)Nc1cccnc1`, for which the z-score is -0.0925.

Take `CCN(CC)CCCNC(=O)CCc1ccccc1`: the z-score is -0.321.

Take `CCN(CC)S(=O)(=O)c1ccc(OC)c(NC(=S)Nc2cccc(C)c2C)c1`: the z-score is -0.257.

Turning to `COc1ccc(CN2CCCCC2c2cccnc2)c(OC)c1C` (configuration not stated), the z-score worked out at 0.0993.

Consider `Cc1cc(=O)oc2cc(OCC(=O)Nc3nnc(C(C)C)s3)ccc12`, for which the z-score was 0.259.

In turn, `O=C1OC(N2CCN(C(=O)C3CCCO3)CC2)c2ccccc21` (configuration not stated) returned a z-score of 0.0461.

Consider `O=C(COc1ccc2ccccc2c1)NC1=NCCS1`, for which the z-score was -0.121.

Take `CC(C)C(OC(=O)c1ccco1)C(=O)NCc1cccs1` (configuration not stated): the z-score was -0.943.

As to `Cc1ccccc1C(=O)NNC(=O)CCC(=O)Nc1cccc(Cl)c1C`, the z-score was -0.34.

`Cc1occc1C(=O)NCc1ccccn1` displayed a z-score of 0.0437.

In the case of `CC12CN3CCN(CC(C3)C1(O)CN1CCOCC1)C2` (configuration not stated), the z-score is -1.33.

On to `C(=N\Nc1nc2ccccc2[nH]1)/c1cccs1`, for which the z-score is -0.236.

For `O=C(CN1CCN(S(=O)(=O)c2ccc(Br)cc2)CC1)N/N=C/c1ccco1`, the z-score was -0.202.

Consider `COc1ccc(C(c2nnnn2C2CCCC2)N2CCC(C)CC2)c(OC)c1` (configuration not stated), for which the z-score is -0.0441.

As for `CC(C)[C@H](NC(=O)c1ccc(Cl)c([N+](=O)[O-])c1)C(=O)NCc1ccc(Cl)cc1Cl`, the z-score was -0.0903.

`Cc1cc(NS(=O)(=O)c2ccc(C3CCCCC3)cc2)no1` registered a z-score of 0.245.

Consider `Cc1cc(NC(=O)CSc2nnc(-c3ccoc3C)o2)no1`, for which the z-score came out at 1.14.
